# Data: the supplement of paper PMC4166925
# ± gives the standard deviation of the averaged measurements. Over roughly 33,000 sequences, “E-score (dimensionless, -0.5 to 0.5)” has its median near -0.049; the highest 2% begin near 0.37. The list shows a part of the results.
# System: T1, PmTbr T-box DNA-binding domain (GST fusion)
# T1 sequence: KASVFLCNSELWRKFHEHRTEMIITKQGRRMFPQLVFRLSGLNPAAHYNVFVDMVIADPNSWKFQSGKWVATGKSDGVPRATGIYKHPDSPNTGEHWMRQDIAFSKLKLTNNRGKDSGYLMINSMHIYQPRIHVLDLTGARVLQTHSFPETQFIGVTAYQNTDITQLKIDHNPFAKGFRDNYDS
# Assay: PBM E-score of 8-mer (E-score (dimensionless, -0.5 to 0.5)); Tbr is Tbrain of the sea star Patiria miniata (Pm) or the sea urchin Strongylocentrotus purpuratus (Sp); higher = stronger binding preference; most listed sequences are background and not binding sites
# Conditions: the construct has about 5 more residues each side
# Procedure: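 Universal protein-binding microarray (Agilent AMADID 016060, 60-bp probes with a 35-bp variable region) incubated with 200 nM GST-fused Patiria miniata Tbr T-box DNA-binding domain (residues 272-466) in PBS pH 7.5. Scored for every ungapped 8-mer (given with its reverse complement) by the Universal PBM Analysis Suite as E-score (modified Wilcoxon-Mann-Whitney enrichment, range -0.5 to 0.5; >0.45 counts as bound) and Z-score of median probe intensity. Two replicate arrays (datasets 1 and 2).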
row,Sequence,PBM E-score of 8-mer
1,GAGTCGAA,-0.0345 ± 0.049
2,AGATCAGG,-0.207 ± 0.013
3,GTTCTATA,-0.101 ± 0.12
4,CTTGACCC,-0.326 ± 0.035
5,CTTCATGC,-0.0971 ± 0.015
6,AGCGTCAC,0.306 ± 0.0054
7,AATGACAT,-0.101 ± 0.054
8,ACCTCAAG,0.127 ± 0.013
9,CATTGAAC,-0.0592 ± 0.0046
10,TAAAGTAA,-0.0267 ± 0.046
11,AAGAGCAA,-0.095 ± 0.034
12,ACATCGGT,-0.0547 ± 0.052
13,CGCTAAAA,0.344 ± 0.033
14,GTGCGCAC,0.178 ± 0.021
15,CCCATAGA,-0.183 ± 0.044
16,ACCGCCAG,0.0385 ± 0.076
17,AAGTGACG,0.4043 ± 0.003
18,GAAAGTAA,0.109 ± 0.11
19,TCGTGACA,0.358 ± 0.017
20,CCCCCGGG,-0.029 ± 0.0011
21,AGCACGGG,-0.0965 ± 0.025
22,CATACCTA,-0.215 ± 0.01
23,CAATAGAG,-0.138 ± 0.09
24,ACGTGCCG,0.221 ± 0.02
25,AGAAGGTC,-0.315 ± 0.034

row,Sequence,PBM E-score of 8-mer
1,GGAGCAGA,-0.252 ± 0.0064
2,ACCGAAGG,-0.121 ± 0.0021
3,AGAAGTAT,-0.106 ± 0.017
4,CGCGTAGA,-0.0748 ± 0.0063
5,GAGGTGGA,0.0566 ± 0.0027
6,GCCGAGGA,-0.0743 ± 0.099
7,TACTAAGA,-0.0479 ± 0.0069
8,AAGACTGG,-0.0529 ± 0.0094
9,CGACAGAG,0.0367 ± 0.088
10,CGAGTCCG,-0.181 ± 0.027
11,TGGAGCCA,-0.0952 ± 0.037
12,CCTCGTCG,0.217 ± 0.074
13,CAGGGGTC,-0.17 ± 0.021
14,AGATAGGC,-0.231 ± 0.06
15,AACTCGGC,-0.107 ± 0.014
16,GGGTCCAC,0.022 ± 0.011
17,ACTGCAGA,-0.167 ± 0.029
18,CTGCGGAC,-0.0295 ± 0.018
19,CTAGTTAA,-0.102 ± 0.053
20,ACCACAGC,-0.156 ± 0.098
21,CTGGAAAA,0.0225 ± 0.034
22,GCGAAAGC,0.118 ± 0.025
23,AGTACAGG,-0.0861 ± 0.022
24,ATAATGTC,-0.151 ± 0.049
25,AGCATTTG,-0.133 ± 0.041

row,Sequence,PBM E-score of 8-mer
1,AAAGAAGG,-0.276 ± 0.03
2,CCGTAACA,0.1915 ± 0.0018
3,CGGCTGGC,-0.0961 ± 0.12
4,ATTTGTCA,0.31 ± 0.0088
5,ATGTAAGA,-0.219 ± 0.073
6,ACACGACG,0.0366 ± 0.042
7,ACTTCCAA,-0.125 ± 0.081
8,ATGCACAT,-0.138 ± 0.021
9,ACCAGGGA,-0.0309 ± 0.029
10,CCGGGGAG,-0.223 ± 0.045
11,AATCAAGT,-0.121 ± 0.085
12,AACTATGT,0.0405 ± 0.073
13,ACTAGAAT,-0.145 ± 0.019
14,CAAACCGC,0.0543 ± 0.051
15,ACGCGCAA,0.00585 ± 0.00035
16,GTGACTCA,0.114 ± 0.0013
17,ACCACCTG,0.262 ± 0.056
18,GCAGTCAC,0.148 ± 0.048
19,CACTCATA,0.161 ± 0.033
20,CGATGCCA,-0.0209 ± 0.052
21,AATTGTTG,0.103 ± 0.06
22,GATAAAGA,-0.136 ± 0.046
23,ACAGATTG,-0.0822 ± 0.024
24,AAGGGCTC,-0.21 ± 0.039
25,CAAAGTAA,-0.173 ± 0.019

row,Sequence,PBM E-score of 8-mer
1,ACCCTTCG,-0.0575 ± 0.0092
2,ACTTCAAA,-0.00641 ± 0.024
3,AATTTGGA,-0.145 ± 0.087
4,ACCAATGC,0.0425 ± 0.027
5,CGATATAA,-0.0508 ± 0.032
6,CCGGAAAA,-0.229 ± 0.022
7,AGAATTGG,-0.222 ± 0.0016
8,CCATCCGG,-0.192 ± 0.012
9,CTACACAG,-0.229 ± 0.11
10,GTAGGCAC,-0.0201 ± 0.055
11,ACTTTCGG,0.0864 ± 0.0095
12,AACGATTC,-0.0317 ± 0.032
13,CAAGTCGG,-0.0367 ± 0.12
14,CCGGATAG,-0.145 ± 0.011
15,ACCAAAAG,0.0188 ± 0.099
16,AATGCAGC,-0.175 ± 0.038
17,GGGGCATA,-0.276 ± 0.013
18,TCATAAGA,-0.171 ± 0.025
19,TACATCCA,-0.0803 ± 0.022
20,CGCGGTAC,0.0216 ± 0.036
21,ACCGAGTG,0.00357 ± 0.044
22,TAATTTCA,0.0397 ± 0.061
23,AGGCTGCG,0.0356 ± 0.014
24,CCTGGGCC,-0.358 ± 0.044
25,CCAGTAAA,-0.0613 ± 0.0075

row,Sequence,PBM E-score of 8-mer
1,GACTCTAA,-0.0315 ± 0.0096
2,AGTATTCA,-0.12918 ± 8.5e-05
3,TCATCCCA,0.0516 ± 0.054
4,CGACCGGA,0.0935 ± 0.032
5,GTGGAAGA,-0.195 ± 0.072
6,TATTGAGA,-0.146 ± 0.028
7,CCTTTAAG,-0.228 ± 0.031
8,ACCGGCGG,-0.104 ± 0.017
9,ACTGGCGG,-0.049 ± 0.07
10,GTAAGTCA,-0.0674 ± 0.031
11,ACAGAGAA,0.0164 ± 0.061
12,CGGCCGAC,-0.0336 ± 0.091
13,CTAGGTGC,0.403 ± 0.008
14,CGAAAAAG,0.0183 ± 0.074
15,ACGCCCGA,0.241 ± 0.0051
16,ACTTCCCA,0.235 ± 0.01
17,GCATCAAC,0.0651 ± 0.026
18,AAAATTTA,-0.0482 ± 0.12
19,CCTGTAAG,0.0373 ± 0.00038
20,CTCGCATA,0.00218 ± 0.012
21,ACTAGTCA,0.164 ± 0.044
22,AAGGGTTG,-0.168 ± 0.083
23,CCCGATAC,-0.0171 ± 0.087
24,GTGCCAAA,0.421 ± 0.017
25,AAGTTACC,-0.0772 ± 0.12

row,Sequence,PBM E-score of 8-mer
1,CTACGAAC,-0.0158 ± 0.05
2,CCGGCCCA,-0.21 ± 0.028
3,AAATATCA,0.0842 ± 0.04
4,ATACAGAT,-0.18 ± 0.039
5,TCTGAACA,-0.0597 ± 0.01
6,CTATTAGA,-0.169 ± 0.027
7,CCAATAGG,-0.0695 ± 0.022
8,ATGGTCTA,-0.164 ± 0.019
9,GAAACGTC,-0.0475 ± 0.0032
10,AGAGTGAT,0.239 ± 0.0043
11,GTTAATTA,-0.00681 ± 0.058
12,CTTTAACA,0.193 ± 0.087
13,AGCCGGGA,-0.163 ± 0.0056
14,ATGTCAGC,0.00315 ± 0.0099
15,ACGGTTCT,0.038 ± 0.039
16,ATGTTCTC,0.0209 ± 0.0069
17,CTACTTTC,-0.0345 ± 0.024
18,CGCGGCGA,0.138 ± 0.047
19,AACGGACG,-0.0533 ± 0.013
20,AGTTATGA,-0.125 ± 0.029
21,ATCGAGTA,-0.143 ± 0.01
22,CTTTGTGC,-0.066 ± 0.038
23,TCCACTCA,-0.188 ± 0.056
24,CCGCATTA,-0.146 ± 0.0002
25,ATACCCTC,-0.0136 ± 0.011

row,Sequence,PBM E-score of 8-mer
1,AAAATAAA,-0.212 ± 0.14
2,GTGTGCGA,0.3565 ± 0.0019
3,CGGTCGAC,0.0978 ± 0.064
4,GTTGAGGA,-0.0472 ± 0.011
5,TGATGCCA,0.0165 ± 0.0068
6,CGGTTGTA,0.039 ± 0.047
7,ATTCAAAA,-0.33 ± 0.11
8,CGGCGAAC,0.0485 ± 0.017
9,ACGAACTA,-0.0663 ± 0.02
10,CTCTTCAA,-0.0317 ± 0.004
11,GATTTTCC,0.0421 ± 0.019
12,AAACTGAC,0.0348 ± 0.024
13,ACTAATAG,0.0141 ± 0.015
14,TCGGTCCA,-0.365 ± 0.015
15,GTACTGTA,-0.238 ± 0.0064
16,ATGGCGAC,0.0973 ± 0.027
17,AGCGAAGA,0.133 ± 0.047
18,AAGCTCCG,-0.199 ± 0.029
19,AAACACAG,-0.1523 ± 0.00079
20,TCGTCAAA,0.0991 ± 0.053
21,CCCGTTAC,0.0158 ± 0.019
22,CTACGGTA,-0.109 ± 0.049
